The conditions of data set [1]: pigs.
A short description of the next data set: in vivo. The settings on record: pig, whole blood, iv.

These results are taken from US20170252447A1, “INFUSABLE SOLUTION FOR LOCAL TREATMENT OF BLOOD VESSELS AND VASCULAR GRAFTS AND METHODS OF USING SUCH A SOLUTION” (Cylerus, Inc., priority 2016, published 2017).

Regarding `CO[C@H]1C[C@@H]2CC[C@@H](C)[C@@](O)(O2)C(=O)C(=O)N2CCCC[C@H]2C(=O)O[C@H]([C@H](C)C[C@@H]2CC[C@@H](O)[C@H](OC)C2)CC(=O)[C@H](C)/C=C(\C)[C@@H](O)[C@@H](OC)C(=O)[C@H](C)C[C@H](C)/C=C/C=C/C=C/1C` [sirolimus, (3S,6R,7E,9R,10R,12R,14S,15E,17E,19E,21S,23S,26R,27R,34aS)-9,10,12,13,14,21,22,23,24,25,26,27,32,33,34,34a-hexadeca-hydro-9,27-dihydroxy-3-[(1R)-2-[(1 S,3R,4R)-4-hydroxy-3-methoxycyclohexyl]-1-methylethyl]-10,21-dimethoxy-6,8,12,14,20,26-hexamethyl-23,27-epoxy-3H-pyrido[2,1-c][1,4]oxaazacycloh-entriacontine-1,5,11,28,29(4H,6H,31H)-pentone], in data set [1] (0.5 mg/month iv infusion, 28 days), the “steady-state blood level (one-phase exponential model fit)” value is 0.487 ng/mL. In addition, in data set [1] (0.5 vs 1.5 mg/month, all time points beyond time zero), the “separation in whole blood sirolimus between low dose and high dose cohorts” value was 2-3 fold. In addition, the “apparent decline from peak to day 28 sample” value in data set [1] (both cohorts (0.5 and 1.5 mg/month)) is 31-37%. For the same compound, in the data set “in vivo” (0.5 mg/month), the Cmax turned out to be 0.611 ± 0.045 ng/mL and the Tmax is 72 h. Moreover, in the data set “in vivo” (1.5 mg/month), the Tmax is 168 h.

Broadly, the Cmax is the peak of the concentration-time curve. For orientation: Tmax means the time at which the peak concentration occurs.
